Results taken from US4971965A, “Antibiotics TAN-1057” (Takeda Chemical Industries, Ltd., priority 1988, dated 1990).

What follows are compounds tested on Pseudomonas aeruginosa C141V. Conditions: read-out: Minimum Inhibitory Conc. (MIC).
Type: cell-based
Description: (Note 1) Measurement was conducted by employing a medium consisting of DY
medium [Bacto Antibiotic Medium 3 (Difco Laboratories, USA)(17.5 g), Bact
yeast extract(Difco Laboratories, USA)(5.0 g) and distilled water(pH
unadjusted)(1000 ml)], using approximately 10^6 colony forming unit/m
of inoculum, by means of the agar dilution method.

Going from `CN(C(=O)C[C@@H](N)CCCNC(=N)N)[C@H]1CNC(NC(N)=O)=NC1=O` [TAN-1057A] to `CN(C(=O)C[C@@H](N)CCCNC(=N)N)[C@@H]1CNC(NC(N)=O)=NC1=O` [TAN-1057B], the MIC rises from 6.25 µg/mL (≈ 17.6 µM) to 25 µg/mL (≈ 70.3 µM) (4-fold).

Going from `CN1C(=O)C[C@H](CCCNC(=N)N)NC(=O)[C@H]1CNC(=N)NC(N)=O` [TAN-1057C] to `CN1C(=O)C[C@H](CCCNC(=N)N)NC(=O)[C@@H]1CNC(=N)NC(N)=O` [TAN-1057D], the MIC falls from 50 µg/mL (≈ 141 µM) to 1.25 µg/mL (≈ 3.52 µM) (40-fold).

In brackets after ≈: the same amount, converted by molar mass.
